Experimental data published in paper PMC6919601, “Identification of Plasmodium dipeptidyl aminopeptidase allosteric inhibitors by high throughput screening” (PLoS ONE, 2019).
Screen size: about 110,000 compounds; about 230 (0.21%) showed an effect of 50% or more. The list shows a part of the results.

What follows are compounds tested against DPAP1 (Plasmodium falciparum, UniProt Q8IIJ9) (assay: primary screen, percent inhibition; read by cleavage of a fluorogenic dipeptide substrate; higher = more effect of the substance).
DPAP1, sequence (Q8IIJ9 whole entry, looked up): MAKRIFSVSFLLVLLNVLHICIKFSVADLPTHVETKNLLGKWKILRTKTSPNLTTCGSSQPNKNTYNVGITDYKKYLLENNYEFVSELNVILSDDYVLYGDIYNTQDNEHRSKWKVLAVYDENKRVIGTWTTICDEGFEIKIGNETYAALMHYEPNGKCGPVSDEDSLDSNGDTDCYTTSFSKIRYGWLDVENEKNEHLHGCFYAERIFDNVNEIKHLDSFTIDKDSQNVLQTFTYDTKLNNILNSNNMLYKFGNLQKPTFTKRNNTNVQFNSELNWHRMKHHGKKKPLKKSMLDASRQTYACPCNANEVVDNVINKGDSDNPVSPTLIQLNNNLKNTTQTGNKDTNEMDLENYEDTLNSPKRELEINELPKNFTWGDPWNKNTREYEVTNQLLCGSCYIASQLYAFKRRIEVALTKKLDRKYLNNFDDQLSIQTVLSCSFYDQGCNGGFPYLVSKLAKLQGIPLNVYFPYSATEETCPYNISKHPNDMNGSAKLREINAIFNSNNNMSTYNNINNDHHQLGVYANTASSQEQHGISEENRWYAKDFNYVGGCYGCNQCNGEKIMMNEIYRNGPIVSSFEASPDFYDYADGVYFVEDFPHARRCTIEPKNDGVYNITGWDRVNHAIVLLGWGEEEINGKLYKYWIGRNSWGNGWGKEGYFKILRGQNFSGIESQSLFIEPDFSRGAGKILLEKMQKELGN
Set-up: species or system P. falciparum D10 trophozoite lysates; single well
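Further: 30 min substrate incubation versus DMSO and 10 µM JCP410 controls.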

Structure (SMILES) | % Inhibition @ 10 uM
O=S(=O)(c1ccccc1)c1nnn2c1nc(Cl)c1ccccc12 | -0.58%
Cc1ccc(-c2nnc3n(CC(C)C)c(=O)c4ccccc4n23)s1 | -1.72%
CCOc1cc(CN2CCN(c3ccc(C(C)=O)cc3)CC2)ccc1O | 3.83%
Cc1cccc(CN2CCCC(O)C2)c1 (stereo not shown) | -0.828%
COC(=O)C1CC2CC(CC(C(=O)OC)C23SCCS3)C1=O (stereo not shown) | -1.29%
CCOC(=O)c1[nH]c2ccccc2c1NC(=O)/C=C/c1cc(OC)c(OC)c(OC)c1 | -5%
Cc1ccc(CCNc2nc3ccccc3n3c(C)nnc23)cc1 | -1.08%
O=C(CCn1cnc2onc(-c3ccc(F)cc3)c2c1=O)NCCN1CCOCC1 | 7.43%
CC1(C)Cc2c(ccc3ccccc23)C(CCN2CCCCC2)=N1 | 2.22%
CC1(C)Cc2ccccc2-c2nnc(-c3ccccc3Cl)n21 | -3.44%
O=C(CSc1nnc(-c2ccco2)o1)NC1CCCCC1 | 1.86%
O=c1c2ccccc2n2c(-c3cccs3)nnc2n1Cc1ccc(F)cc1 | 3.3%
CCOc1ccc2ncc(S(=O)(=O)c3ccccc3)c(NCc3ccccc3)c2c1 | -10.4%
Cc1ccc(C(=O)Nc2ccon2)cc1S(=O)(=O)N1CCOCC1 | -3.53%
COc1ccc(Br)cc1CN1CCCC(C)C1 (stereo not shown) | 3.68%
Cc1nnc2sc(-c3ccc(C(C)(C)C)cc3)nn12 | 2.29%
COc1cc(Cc2nn[nH]n2)cc(OC)c1OC | 2%
COc1ccc(N2C(=O)C(Cl)=C(Nc3ccc(C)cc3C)C2=O)cc1 | 0.658%
CCOCCCNC(=O)C1CCC(CNS(=O)(=O)c2ccccc2)CC1 (stereo not shown) | 0.718%
COc1ccc2c(c1OC)C(=O)N1c3ccccc3N=C(c3ccc(F)cc3)CC21 (stereo not shown) | -3.19%
CC(C)(CO)NCc1cc(Br)ccc1OCc1ccccc1 | -3.67%
Cc1cccc(C)c1-n1c(C)cc(/C=C2\NC(=O)NC2=O)c1C | 4.83%
O=C(O)c1cc2cccc3c2n1CCS3 | -3.53%
O=C(CN1C(=O)c2cccc3cccc1c23)NCCc1ccccc1 | -1.28%
COc1ccc(N2CCN(CC3=CC[C@H]4C[C@@H]3C4(C)C)CC2)cc1 | 1.9%
CCn1cc(C(=O)Nc2cnn(Cc3ccc(Cl)c(Cl)c3)c2)cn1 | 1.88%

Structure (SMILES) | % Inhibition @ 10 uM
CC(C)NC(=O)CN(c1ccccc1F)S(=O)(=O)c1ccccc1 | 3.66%
Cc1nnc(N2CCCC(C(=O)NCCCN3CCCC3=O)C2)c2nn(-c3ccccc3)c(C)c12 (stereo not shown) | 2.75%
O=C(c1ccccc1)c1ccc2nc(O)c(O)nc2c1 | -0.414%
COc1ccc(OC)c2sc(N(CCN(C)C)C(=O)c3cccc(C(F)(F)F)c3)nc12 | -9.64%
CCOc1ccc(NS(=O)(=O)c2ccc(Cl)cc2)cc1 | -3.71%
COC(=O)C1=C(C)NC(=O)NC1c1ccccc1OC(C)C (stereo not shown) | -1.03%
COc1ccc(C(=O)Nc2ccccc2)cc1NC(=O)COc1cccc(C)c1 | -3.37%
COc1ccc(C(=O)Nc2nc3nc(C)cc(O)n3n2)cc1OC | -3.08%
CCCC(=O)NC1=C(C#N)C2(CCCC2)Cc2ccccc21 | 2.31%
CN(Cc1ccccc1)c1ccn(-c2nc(-c3ccccc3)oc2-c2ccccc2)c(=O)n1 | 4.35%
CC1=C(C(=O)Nc2ccccc2)C(c2cccs2)N2C(=O)CSC2=N1 (stereo not shown) | -0.105%
CCOc1ccccc1/C=C1\N=C(c2ccc(OC)cc2)OC1=O | -1.12%
CC(=O)c1cccc(NC(=O)COc2ccc(C3CCCCC3)cc2)c1 | 9.36%
Cc1cc2ncn(C(=O)N3CCOCC3)c2cc1C | 2.38%
C/C(=N\CCc1ccc(F)cc1)C1=C(O)c2ccccc2C1=O | -1.18%
O=C1/C(=C/c2cc(Br)cs2)Cc2ccccc21 | 2.59%
CN(C)C(=O)/C(=C\c1ccc(-c2ccc(Cl)cc2)o1)NC(=O)c1ccccc1 | -0.988%
CCOC(=O)C1=C(CN2CCc3ccccc3C2)NC(=O)NC1c1ccc(OC(C)C)cc1 (stereo not shown) | -2.83%
CCOc1ccc(OCc2ccc(C(=O)Nc3cccc(C)n3)o2)cc1 | -6.7%
CCCOc1ccc(C2(C(=O)O)CCCC2)cc1 | 0.685%
COc1cc(Br)cc2cc(S(=O)(=O)c3ccc(F)c(C)c3)c(=O)oc12 | 2.12%
CCn1c(CCNC(=O)c2cccc(C)c2)nc2ccccc21 | 7.25%
COc1ccc(-c2c(C)c(C)nc(N)c2C#N)cc1 | 0.51%
NC(=O)C1CCCN(Cc2cccc(F)c2)C1 (stereo not shown) | -0.292%
O=C(NCc1ccco1)Nc1ccc(Cl)c(Cl)c1 | 2.94%
CC1CCCN(C(=O)C2CCCN(c3ncnc4onc(-c5ccc(F)cc5)c34)C2)C1 (stereo not shown) | 4.27%

Structure (SMILES) | % Inhibition @ 10 uM
C#CCn1c(CCC)nc2ccccc21 | 1.12%
O=C1C2CC=CCC2C(=O)N1c1cc(Cl)ccc1O (stereo not shown) | -1.07%
COc1ccc(CNC(=O)c2sc3nc4c(c(C(F)(F)F)c3c2N)CCC4)cc1 | 1.95%
O=C(Nc1nc2c(s1)CCCC2)c1ccc2c(c1)CC(c1ccccc1)OC2=O (stereo not shown) | -1.15%
Cc1ccc(SCCC(=O)N2CCCCC2)cc1 | -11.6%
O=C(/C=C/c1ccccc1)Nc1ncc(Cc2ccccc2Cl)s1 | 10.7%
COc1ccc(OC)c(C(=O)c2ccc(C(=O)NC3CCCCC3)cc2)c1 | 4.57%
Nc1c(N2CCCCCC2)cnn(-c2ccccc2)c1=O | 2.65%
C=CCn1c(SCC(=O)N2CCC(C)CC2)nc2sc3c(c2c1=O)CCCC3 | -3.41%
COc1ccc(NC(=O)COc2ccc(Br)c(C)c2)cc1 | -3.23%
COc1ccccc1CNC(=O)CCCc1nnc2n3nc(C)nc3c3ccccc3n12 | 0.44%
COc1cc2c(cc1OC)CN(C(=O)CSc1ccc3ccccc3n1)CC2 | -5.79%
CCN1CCN(c2ccc3nsnc3c2[N+](=O)[O-])CC1 | -1.69%
COCc1cc(C)nc(SCC(=O)Nc2nc(-c3ccccc3)c(C)s2)c1C#N | 6.69%
COc1cc(OC)c(C2N(c3cc(C)on3)C(=O)C3CCCN32)cc1OC (stereo not shown) | -0.499%
CCc1cc(C(=O)N2CCOCC2)c(NC2=NS(=O)(=O)c3ccccc32)s1 | -1.69%
C=C(C)CSc1nc2c(cc1C#N)CCC2 | 6.19%
O=C(C1=C(O)C(=O)N(Cc2cccnc2)C1c1ccc(F)cc1)c1ccc(F)cc1 (stereo not shown) | 6.73%
O=C1NCC(O)=C1/C=N/CCc1ccc(O)cc1 | -1.06%
O=C(Cc1nnc(NC(=O)c2ccco2)s1)NCc1ccccc1 | 17.3%
COCCCNC(=O)C1CCN(S(=O)(=O)c2ccc(OC)c(OC)c2)CC1 | -1.92%
CCc1cccc(C)c1NC(=O)c1cccnc1 | -6.79%
CN(C1CCCCC1)S(=O)(=O)c1ccccc1[N+](=O)[O-] | -1.62%
CCc1ccc(CNC(=O)Nc2cn(CC(C)C)c(=O)c3ccccc23)cc1 | -3.64%
CC(C)(C)C1CCC(N2CCN(c3ccc([N+](=O)[O-])cc3)CC2)CC1 (stereo not shown) | 0.472%
CC12CN(Cc3ccc(Br)cc3)CC(C)(CN(C(=S)Nc3ccccc3)C1)C2 | -0.807%

Structure (SMILES) | % Inhibition @ 10 uM
CN(Cc1ccco1)C(=O)c1cc2c(s1)-c1ccccc1OC2 | -3.08%
CC(NC(=O)c1nc(-c2ccc(Br)o2)no1)c1ccccc1 (stereo not shown) | 2.62%
O=C(CCc1ccc(S(=O)(=O)NCc2ccccc2)cc1)N1CCc2ccccc2C1 | -1.61%
CC12CC=CCC1C(=O)N(CCN1C(=O)C3CC=CCC3(C)C1=O)C2=O (stereo not shown) | -3.04%
COc1ccc(-c2cc(C(=O)NCc3cccs3)c3ccccc3n2)cc1 | 1.17%
COc1ccc(-n2nc3c(N4CCC(C(=O)N5CCCCCC5)CC4)nnc(C)c3c2C)cc1 | 3.42%
CCc1ccc2ncc(S(=O)(=O)c3ccccc3)c(N3CCCC3)c2c1 | -3.69%
CC(C)CN(CCNC(=O)COCc1cc(-c2ccc(F)cc2)on1)CC(C)C | -6.43%
CCCCN(CC)CCNC(=O)c1cc2cc3ccc(OC)cc3nc2o1 | -5.22%
COc1ccc(/C=C(\C#N)c2nc3ccccc3[nH]2)c(OC)c1 | -0.414%
COc1ccc(C(=O)c2oc3ccccc3c2NC(=O)CC(C)C)cc1 | 2.31%
OCCNc1ncnc2[nH]cnc12 | 2.59%
CCNC(=O)c1ccc(-n2nc(C)cc2-c2ccccc2)cc1 | -5.06%
COc1ccccc1Nc1ncc(F)c(Nc2ccccc2OC)n1 | -2.2%
CC1=C(C(=O)Nc2ccccc2)C(c2ccccc2)C(C#N)=C(SCC(=O)Nc2ccccc2)N1 (stereo not shown) | 2.44%
CCN1CCN(CC(O)COC2CC(C)CCC2C(C)C)CC1 (stereo not shown) | -2.37%
COc1ccc(-c2nc(C#N)c(N3CCN(C)CC3)o2)cc1 | -5.1%
N#CC1=C(N)Oc2[nH]nc(-c3ccc(Cl)c(Cl)c3)c2C1c1cccs1 (stereo not shown) | 1.57%
Cc1cccn2c(=O)c3cc(S(=O)(=O)c4ccc(Cl)cc4)c(=N)n(C4CCCC4)c3nc12 | 3.21%
CCn1nc(C(=O)Nc2cccc3ccccc23)c(Cl)c1Cl | -4.67%
CC1CC(C)CN(CCCNC(=O)Cc2c(C(=O)O)n(C)c3ccccc23)C1 (stereo not shown) | -2.04%
CN1CCN(C2CCCCCC2)CC1 | 0.162%
CCCCOc1ccc(/C=C2\SC(=O)NC2=O)cc1OC | 5.44%
N=C1C[N+](CCc2ccccc2)=NO1 | -0.85%
Cc1n[nH]c(C)c1CCCCOc1ccc(F)cc1 | -12.4%
